Data: PubChem BioAssay AID1347071 (National Center for Advancing Translational Sciences (NCATS), 2019)
The campaign covered roughly 410,000 compounds. About 260 (0.063%) were called active. Inconclusive means that the source gave no clear call. Such entries were picked first, then a sample of the others. Calls follow the shape of the dose curve; as a rule, active = well fitted activation curve with a large enough effect; inconclusive = small, poorly fitted or top-dose-only effect; inactive = no such curve, though single readings can be large or run the other way. Potencies of inconclusive entries are left out as doubtful fits.

Test: qHTS for compounds that reverse cellular toxicity of Amyloid beta (A-beta) peptide in yeast: Primary Screen; also: nearly all actives have a fitted effect of over 55% in size
Details: yeast expressing A-beta42, growth rescue, OD600, 48 h; growth rescue: at 46.1 µM (top of the series), 0% DMSO, 100% iron-clioquinol control
How it was run: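 Growth rescue measured by 600 nm absorbance after 48 h yeast culture at 30 C with compound. Values normalized between DMSO and an equimolar ferric chloride plus clioquinol control.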
Potency is read from the fitted curve at half-maximal effect; tags tell the direction and shape of the fitted curve.

SMILES | Potency | growth rescue
CCCC(C(=O)Nc1nccs1)c1ccccc1 (stereo not given) | inconclusive [activator, partial curve, poor fit] | –
COC(=O)c1c(C#N)c(N)nc2c1CCC2 | inconclusive [activator, full curve] | –
C/C(=N\NC(=S)NCc1ccccc1)c1ccccc1 | active: 3.55 µM | –
COc1ccc(C(=O)NC(=S)NNC(=O)[C@H]2C[C@@H]2c2ccccc2)cc1OC | inconclusive [activator, partial curve, poor fit] | –
O=C(NC(=S)Nc1cccc([N+](=O)[O-])c1)C1CCCCC1 | inconclusive [activator, full curve] | –
Cc1ccc2[nH]c(C)c(/C=C/c3cc[n+](C)cc3)c2c1 | – | inactive: -6.9%
O=S(=O)(NNc1cccc(Cl)n1)c1ccc(Cl)cc1 | inconclusive [activator, partial curve, poor fit] | –
CCC(C)NC(=O)CSc1nc2n[nH]c(C)c2c(=N)n1-c1cc(Cl)ccc1C (stereo not given) | – | inactive: -16.1%
Cc1ccc(NC(=O)CN2CCN(S(=O)(=O)c3ccc(C(C)C)cc3)CC2)cc1F | inconclusive [activator, single point] | –
OCCC1CN(Cc2c(O)ccc3ccccc23)CCN1CCc1ccccc1 (stereo not given) | inconclusive [activator, partial curve, poor fit] | –
Cc1cccn2c(=O)c(/C=C(\C#N)C(=O)NCc3ccco3)c(N3CCC(C(N)=O)CC3)nc12 | inconclusive [activator, partial curve, poor fit] | –
CC1=CC(C)(C)Nc2ccc(Cc3ccc4c(c3)C(C)=CC(C)(C)N4)cc21 | inconclusive [activator, full curve, poor fit] | –
Cc1nc2ccc(NS(=O)(=O)c3ccc(F)c(F)c3F)cc2s1 | – | inactive: -27.5%
COc1cccc(C(C)NC(=S)NCc2ccc(F)cc2)c1 (stereo not given) | inconclusive [activator, partial curve, poor fit] | –
Fc1ccc(CNC(=S)NCc2cccc(Cl)c2)cc1 | inconclusive [activator, single point] | –
O=C(Cc1ccccc1)NCCCc1ccccc1 | – | inactive: 13.6%
Cc1cccc(NC(=S)NCc2ccc3c(c2)OCO3)c1 | – | inactive: 25%
O=C(C(=O)N1CCN(c2ccccc2)CC1)c1c[nH]c2ccccc12 | inconclusive [activator, partial curve, poor fit] | –
CC1Cc2ccccc2N1C(=O)c1ccc(N2CCCC2)c([N+](=O)[O-])c1 (stereo not given) | inconclusive [activator, partial curve] | –
O=C(c1ccc(N2CCCC2=O)cc1)N1CCN(c2ccc(Cl)cc2)CC1 | – | inactive: -16%
COc1ccc(CNc2ncnc3sccc23)cc1 | inconclusive [activator, single point] | –
Cc1ccc(C)c(NC(=S)NCc2ccc3[nH]c4c(c3c2)CCCC4)c1 | inconclusive [activator, partial curve] | –
CCn1c(-c2cc(-c3ccccc3)sc2N)n[nH]c1=S | inconclusive [activator, single point] | –
CC(C)(C)NC(=O)NC(=O)CSc1cccc(C(F)(F)F)c1 | inconclusive [activator, partial curve, poor fit] | –

SMILES | Potency | growth rescue
O=C(NNC(=S)NC(=O)c1ccccc1Cl)c1cccc([N+](=O)[O-])c1 | inconclusive [activator, full curve] | –
CC(NS(=O)(=O)c1ccc(Br)s1)c1ccccc1 (stereo not given) | inconclusive [activator, full curve] | –
CCc1ccccc1NNC(=O)c1cc(C)on1 | inconclusive [activator, partial curve, poor fit] | –
O=C(OCc1nc2ccc(Cl)cc2n1CCO)c1ccccc1 | inconclusive [activator, single point] | –
Fc1cccc(-n2ncc3c2ncn2nc(Cc4ccccc4)nc32)c1 | – | inactive: 2.97%
COc1cc(OC)c(OC)cc1CN1CCN(Cc2cccc(F)c2)CC1 | inconclusive [activator, single point] | –
COc1cccc(NC(=O)C(=S)NC2CCCCC2)c1 | inconclusive [activator, full curve, poor fit] | –
CNCc1ccccc1Sc1cc(O)ccc1O | – | inconclusive: -51% [activator]
C=CCNC(=S)NC(=O)c1csc([N+](=O)[O-])c1 | inconclusive [activator, partial curve, poor fit] | –
Cc1ccc(-c2nc(N=Nc3ccc(O)cc3)n[nH]2)cc1 | inconclusive [activator, single point] | –
CC(C)CCn1cnc2c(NCc3ccccc3)ncnc21 | inconclusive [activator, partial curve, poor fit] | –
O=C(Nc1cccc2c1CCCC2)c1cc(C2CCCCN2C(=O)OCCF)on1 (stereo not given) | inconclusive [activator, single point] | –
CCCCC(=O)NNC(=S)NC(=O)c1ccc([N+](=O)[O-])cc1 | inconclusive [activator, single point] | –
Cc1ccc(-n2c(=S)sc3c(=O)n(-c4ccccc4C)c(SCC(=O)O)nc32)cc1C | – | inactive: -2.36%
Cc1cc(C)cc(N(CCC(=O)O)S(=O)(=O)c2ccc(Cl)cc2)c1 | inconclusive [activator, partial curve, poor fit] | –
OC1(c2ccc3ccccc3c2)CCN(Cc2ccccc2)C1 (stereo not given) | inconclusive [activator, single point] | –
O=C(CSc1nnc(-c2cc3ccccc3cc2O)n1Cc1ccco1)N1CCc2ccccc2C1 | – | inactive: -4.86%
Cc1oc2nc(SCC(=O)NC3CCCCC3)nc(N)c2c1C | inconclusive [activator, full curve, poor fit] | –
COc1ccc(CNC(=S)NCc2ccc(OC(C)C)cc2)cc1 | inconclusive [activator, partial curve, poor fit] | –
CN1/C(=C/C(=S)NC(=O)C2(C)CC2(Cl)Cl)C(C)(C)c2ccccc21 (stereo not given) | active: 10 µM | –
Cc1cccc(Nc2nnc(SCC(=O)c3ccc(Br)s3)s2)c1C | inconclusive [activator, partial curve, poor fit] | –
COc1cc(/C=C/C(=O)OCC(=O)Nc2cc(S(=O)(=O)N3CCCCC3)ccc2C)ccc1O | – | inactive: 4.42%
C#CCNC(=O)C[C@@H]1C[C@@]2(C(=O)OC)CC(C)(C)CC=C2N(CCCCCCCC)C1=O | inconclusive [activator, partial curve, poor fit] | –
CCCCNc1c(-c2ccc(OC)c(SC3CCCCC3)c2)nc2cc(C)ccn12 | – | inactive: -77.7%

SMILES | Potency | growth rescue
Cc1c(N)cccc1N | inconclusive [activator, full curve] | –
CCCCC(=O)NNC(=S)NC(=O)CCC | inconclusive [activator, partial curve, poor fit] | –
COCCNC(=O)C1(C)CCCN(Cc2ccc(OCc3ccccc3)cc2)C1 (stereo not given) | – | inactive: 15%
CCC1CN(C(=O)N2CCC(C(=O)NCCc3ccccc3Cl)CC2)c2cc(C)ccc2O1 (stereo not given) | inconclusive [activator, single point] | –
Cc1ccc(Cl)cc1NC(=O)Nc1nnc(N(C)Cc2ccccc2)s1 | – | inactive: -2.83%
Cc1ccc(S(=O)(=O)/N=C2/NC(=O)/C(=C/c3ccccn3)S2)cc1 | inconclusive [activator, partial curve] | –
CNc1ccccc1C(C)(C)c1cc(-c2cccc(Br)c2)no1 | inconclusive [activator, single point] | –
O=C(CC1(O)C(=O)N(CCc2ccccc2)c2ccc(Br)cc21)c1ccc(F)cc1 (stereo not given) | inconclusive [activator, single point] | –
O=C(NCCC1=CCCCC1)c1ccc2c(c1)N(Cc1ccccc1F)C(=O)c1ccccc1S2=O (stereo not given) | – | inactive: -1.46%
CCCNS(=O)(=O)c1ccc2nc(NC(=O)c3ccc(F)cc3)sc2c1 | – | inactive: -16.9%
CN(C)S(=O)(=O)c1ccc(C(=O)OCc2nnc(-c3ccccc3)o2)cc1 | – | inactive: -17.3%
CCOc1ccc(/C=C/C(=O)Nc2sc3c(c2C(=O)OC)C(C(=O)OC)CC3)cc1 (stereo not given) | – | inactive: 3.06%
Cc1ccc(-n2ncc(C(=O)NCCc3ccccc3)c2C2CCN(C(=O)OC(C)(C)C)CC2)c(C)c1 | inconclusive [activator, single point] | –
Cc1nc2sc(C#N)c(N)c2c2c1CCCC2 | – | inactive: 0.521%
O=C(COC(=O)CSc1ccc2ccccc2c1)NC1CC1 | inconclusive [activator, partial curve] | –
CSc1sc(-c2n[nH]c(=S)n2C)c2c1C=CCC2 | inconclusive [activator, single point] | –
CC(=O)/C(N=Nc1ccc(SC(F)F)cc1)=C(\C)O | inconclusive [activator, single point] | –
O=C(Cn1nnc2c(cnn2-c2ccc(F)cc2)c1=O)Nc1ccccc1C(F)(F)F | – | inactive: -7.63%
Nc1ccc(N2CCOCC2)c(S(=O)(=O)Nc2cc(Cl)ccc2Cl)c1 | inconclusive [activator, full curve] | –
S=C(NCc1ccccc1Cl)Nc1ccccc1Cl | inconclusive [activator, partial curve] | –
CCOc1ccc(NC(=O)CCC(=O)N2CC(C)Oc3ccc(C)cc32)cc1 (stereo not given) | – | inactive: 7.46%
CC(C)(C)NC(=O)c1ccnc(C(C)(C)C)c1 | – | inactive: -4.52%
